Read counts are not given, so values of variants with three or more changes are uncertain.

167 variants from the RNAGym collection of RNA variant scans (doi:10.7554/elife.90254) can be followed below.

To fix the notation:
B1: LINE1-mini (parent)
chain: GGCAGAGCUCAACACAGCGUGGCAAAGUGGCUGUGGCUAGACUGCC

The variants in the data set derive from B1. Nature of the data set: self-cleavage, relative activity (ratio to wild type); higher = more cleavage; in vitro, sequencing; the parent is a self-cleaving ribozyme.
For the variant A14U C37U A39G, the self-cleavage came out at 0.02.
Take C15A U32C G35A G40U: the self-cleavage amounted to 0.05.
For C15A U28G G29U C42A the value was 0.04.
C15A G35U G40A: the self-cleavage amounted to 0.05.
For C15A U20G A39U, the self-cleavage amounted to 0.1.
Consider A14U C15U G40U, for which the self-cleavage is 0.18.
For C15A G29U G36U, the self-cleavage came to 0.05.
Regarding C15A C18G G19C G21U A26G U43C, the self-cleavage worked out at 0.04.
For C15A A39U U43G C45U the value was 0.06; for C15A A39U C42A, 0.43.
C15A G22U U38C C42U C45U: the self-cleavage worked out at 0.01.
In the case of C15A G36C C42A, the self-cleavage came to 0.04.
For the variant A14U G35C G36U A39U, the self-cleavage amounted to 0.07.
Take C15A A26U G40U: the self-cleavage amounted to 0.03.
For A14U G29U G44A the value was 0.38.
For C15A U20G U34G C45A the value was 0; for C15A C37A C45U, 0.04; for C15A C18U U20A, 0.05.
On to C15A A16C G17C G19A G22C A26G, for which the self-cleavage is 0.06.
As to C15A G21C G36U C37G, the self-cleavage amounted to 0.03.
For A14U C15A G30A C31U U34G C37G A41C C46A the value was 0.01.
Consider C15A C18A C37A U38G, for which the self-cleavage was determined as 0.02.
Turning to C15A C18U G27C G33U G36U G40U, the self-cleavage is 0.06.
Consider C15A G17U C45U C46U, for which the self-cleavage was found to be 0.04.
For A14U G21A G35A the value was 0.25; for A14U G21A G30U, 0.1.
On to A14U C15G G17C U20C U43C, for which the self-cleavage amounted to 0.03.
For C15A U32A U34A the value was 0.23.
Take C15A C37G U43C: the self-cleavage came to 0.02.
With C15A G19A A26U G40U, the self-cleavage is 0.06.
For C15A G22C U43C the value was 0.
For C15A G17U G22A A26U C42U the value was 0.05.
Consider A14U A25G G36C A41U U43G, for which the self-cleavage stood at 0.01.
For C15A G21U C45U the value was 0.04.
For C15A C31G G40C the value was 0.02; for A14U G17U G44U, 0.02; for C15A U28A G36A, 0.23.
For A14U C23G A26C the value was 0.42.
C15A G22A C31A G40C C42A: the self-cleavage came out at 0.01.
For C15A G17C G19C the value was 0.03; for C15A G17C G19A, 0.03; for A14U G21A C45U, 0.31.
Consider C15A C31U A41C, for which the self-cleavage is 0.02.
On to A14U G17U C23A, for which the self-cleavage worked out at 0.01.
Regarding A14U G22C C23U, the self-cleavage worked out at 1.13.
Consider C15A A24U G36A, for which the self-cleavage amounted to 0.05.
For A14U G22U C46A the value was 0.32.
For C15A A24G A26U G30C U34G the value was 0.01; for A14U G22C G35A, 0.14.
Take C15A A26U G33U U43A: the self-cleavage is 0.09.
Regarding A14U C18G G21U A24C U34G G36C U43G, the self-cleavage was 0.21.
With A14U U28G C31G, the self-cleavage was 0.02.
In the case of C15G A24C C37U U38G, the self-cleavage was 0.02.
For C15A G17C G27U G40A the value was 0.13.
For C15A G19A G21A A25G the value was 0.
For A14U C18G G30C C31A the value was 0.32; for C15A G29U G40A, 0.05.
A14U G19U A24C: the self-cleavage worked out at 0.12.
As to C15A A25C G29U C37G A41C, the self-cleavage was determined as 0.02.
For A14U G29A C31A the value was 0.02.
For C15A G19A C23U C31G C45U the value was 0.01; for A14U G21A G22U A41U C42G, 0.04.
For C15G A16G C37U U38G C45U the value was 0.01; for A14U G33C C46A, 0.03.
Consider C15G A25U U34A, for which the self-cleavage came out at 0.04.
For C15A U32C G35C the value was 0.02; for A14U G22C A41U, 0.11; for C15A C23A G30C C45A C46U, 0.
For C15A A16C G21A G44U the value was 0.14; for C15G A16U A39U, 0.02; for C15A G27A C37U, 0.04.
C15A G19U A25U: the self-cleavage stood at 0.04.
For C15A A41U C46G the value was 0.03.
For the variant C15A G19C G30U G35C C46G, the self-cleavage stood at 0.07.
For A14U G33U C42A the value was 0.06.
Regarding A14U G17A G30U G36A, the self-cleavage came out at 0.08.
With C15G A25C C45U, the self-cleavage is 0.05.
In the case of A14U A39G C42G, the self-cleavage is 0.04.
Take C15A G17C C45G: the self-cleavage amounted to 0.12.
Consider A14U C23U C42U U43A, for which the self-cleavage worked out at 0.05.
For C15A U20G A26C U32C the value was 0.1.
For A14U G21A C31A the value was 0.02.
For C15A G27C U32A the value was 0.08.
Take A14U U34A A39C G40A: the self-cleavage turned out to be 0.02.
Take C15A G19C G44U: the self-cleavage stood at 0.15.
On to A14U C23A G29A G36A, for which the self-cleavage was 0.14.
In the case of A14U G22A G30C C31A, the self-cleavage amounted to 0.07.
For A14U U20G C31U the value was 0.01.
For A14U A25G U28C G35U the value was 0.03; for A14U G21U C31A G36U G40C, 0.06; for A14U G35U A39U G40C, 0.03.
Consider A14U C18G C46U, for which the self-cleavage is 0.09.
As for C15A G19C U20C C23U, the self-cleavage was determined as 0.01.
In the case of C15A C18U G35C, the self-cleavage is 0.02.
For A14U G27U G30C the value was 0.11; for A14U G17U U20C C23G C31U, 0.02.
For C15A A39G C42U the value was 0.02.
On to C15A G30A U43G C46G, for which the self-cleavage is 0.01.
For A14U G17U G33C A41C G44A C45G the value was 0; for C15G A25U G36C A39U U43G, 0; for C15A U20C G36C U38A, 0.02.
For A14U G21C C42G the value was 0.08.
On to A14U C23G A24U, for which the self-cleavage was 0.07.
For A14U A39C C46G the value was 0.16; for C15A A26U U34A G44U, 0.01.
For C15A U34C U38C the value was 0.02.
Turning to A14U G27C U28A U43C, the self-cleavage is 0.03.
For C15A G27A G35U the value was 0.02.
For A14U G17U U38C, the self-cleavage is 0.05.
For A14U A24C U32A G35C the value was 0.
For A14U G27C A41U the value was 0.02.
Regarding C15A U20G U28C G33A, the self-cleavage came out at 0.
As to C15A G19C G29A C42U G44U, the self-cleavage turned out to be 0.07.
For C15A G30U U43C the value was 0.02.
Turning to C15A G17A U28C C46U, the self-cleavage is 0.02.
For the variant C15A G22A G44U, the self-cleavage stood at 0.1.
For C15A A26G U28A the value was 0.03.
For C15A G19A G21A G22C A41G U43A the value was 0.01; for A14U C18G G30U C37A, 0.05.
For C15A G21U G22A the value was 0.02; for A14U C15A U38A G40U, 0.02; for A14U G19U C37A, 0.36.
In the case of C15A G21A G29A C45A, the self-cleavage is 0.03.
For C15A C18G C31A U32G U34C the value was 0.08.
For A14U U34G U43C G44A the value was 0.02.
Regarding A14U U34G G40C, the self-cleavage is 0.07.
For C15A U34G U38A A39G A41U the value was 0.01.
Consider A14U C18U U28A C42U, for which the self-cleavage amounted to 0.05.
For C15G A16C A25G C46U, the self-cleavage came to 0.
For C15A A24G G30A G40C C45A the value was 0.01.
For A14U G21A G22U A24C G40U, the self-cleavage was 0.13.
On to C15A G35C G40U, for which the self-cleavage was determined as 0.
As to C15A C31A U34C C37G, the self-cleavage was 0.01.
For A14U C15A G21C A39U C42G the value was 0.01; for A14U G19C C23U A25C G35C, 0.02.
Turning to A14U U34A G40A, the self-cleavage came out at 0.08.
For C15A A24U U38C the value was 0.05; for C15A C31U G40A U43A, 0; for C15A A25G U43C, 0.08.
For A14U C42G C46U the value was 0.03.
For C15A A16U G40A the value was 0.28.
In the case of A14U C15A C18A, the self-cleavage was found to be 0.05.
For C15A G30U G40A, the self-cleavage was found to be 0.
Regarding C15A A16G C42U C46A, the self-cleavage came out at 0.02.
As to A14U G19A A24C C37A, the self-cleavage was found to be 0.14.
For A14U G21C U34C the value was 0.09; for A14U G19C A24U U32G A39C, 0.03; for C15A A16C G17C U38C, 0.06.
For C15A A16U G30A C31A U43G the value was 0.01; for C15A A16U G33A C37A C45A, 0.
For A14U G17U G30U C42A the value was 0.24; for A14U G17U C46A, 0.02; for C15A U32C G36C, 0.01.
In the case of C15A A25U U38G, the self-cleavage turned out to be 0.02.
For C15A G17A C23A, the self-cleavage stood at 0.03.
With C15G A16G G27C, the self-cleavage was 0.01.
On to C15A U28A U34G G36U G44U, for which the self-cleavage is 0.06.
With A14U A26G U34G C42G, the self-cleavage came out at 0.02.
For A14U A39U C46G the value was 0.07.
A14U A25C C45A: the self-cleavage amounted to 0.08.
For C15A U34G U38C the value was 0.03.
For the variant C15A G17C G36U, the self-cleavage turned out to be 0.09.
As to C15A G33U U38A G44C, the self-cleavage came out at 0.02.
For A14U C18U A24U A41U the value was 0.02; for C15G A24U C42U G44U, 0.02; for C15A G17C G29A G30C, 0.02.
For A14U C18G G36A A39C C45G the value was 0.
